Experimental data taken from a collection of fitness landscapes (doi:10.1126/science.1257360).
The other results are listed elsewhere or left out.

B1: PhoQ; a variant is named by its letters at X, in order, P23837 (parent)
chain: MKKLLRLFFPLSLRVRFLLATAAVVLVLSLAYGMVALIGYSVSFDKTTFRLLRGESNLFYTLAKWENNKLHVELPENIDKQSPTMTLIYDENGQLLWAQRDVPWLMKMIQPDWLKSNGFHEIEADVNDTSLLLSGDHSIQQQLQEVREDDDDAEMTHSVAVNVYPATSRMPKLTIVVVDTIPVELKSSYMVWSWFIYVLSANLLLVIPLLWVAAWWSLRPIEALAKEVRELEEHNRELLNPATTRELTSLVRNLNRLLKSERERYDKYRTTLTDLTHSLKTPLXXLQXXLRSLRSEKMSVSDAEPVMLEQISRISQQIGYYLHRASMRGGTLLSRELHPVAPLLDNLTSALNKVYQRKGVNISLDISPEISFVGEQNDFVEVMGNVLDNACKYCLEFVEISARQTDEHLYIVVEDDGPGIPLSKREVIFDRGQRVDTLRPGQGVGLAVAREITEQYEGKIVAGESMLGGARMEVIFGRQHSAPKDE

Variants of: B1
Assay: enrichment ratio after two sorts for PhoP signalling (ratio (wild type AVST 3.29)); higher = more functional
Conditions: with PhoP (E. coli)

YNKL and VGVL cannot be ordered by enrichment ratio: at most 0.25 for the first, at most 0.25 for the second.

FHLV and YRHG cannot be ordered by enrichment ratio: at most 0.25 for the first, at most 0.25 for the second.

CSRQ and NKSY cannot be ordered by enrichment ratio: at most 0.25 for the first, at most 0.25 for the second.

Compared with LHHA, SNYY is higher in enrichment ratio: at most 0.25 for the first, 0.504 for the second.

GMCC and EFTI cannot be ordered by enrichment ratio: at most 0.25 for the first, at most 0.25 for the second.

First: SASS
Second: PEHY
The enrichment ratio of the first is higher: 9.93 for the first, at most 0.25 for the second.

First: EMNY
Second: SQNS
The enrichment ratio of the first is lower: at most 0.25 for the first, 1.7 for the second.

MYNI and DQFR cannot be ordered by enrichment ratio: at most 0.25 for the first, at most 0.25 for the second.

WYPG and LCNC cannot be ordered by enrichment ratio: at most 0.25 for the first, at most 0.25 for the second.

IIIH and TSKT cannot be ordered by enrichment ratio: at most 0.25 for the first, at most 0.25 for the second.

Compared with WAQL, AMTF is higher in enrichment ratio: at most 0.25 for the first, 7.31 for the second.

Compared with TSYH, KFKY is lower in enrichment ratio: 5.77 for the first, at most 0.25 for the second.

RVID and ALII cannot be ordered by enrichment ratio: at most 0.25 for the first, at most 0.25 for the second.

GIYH and IWIL cannot be ordered by enrichment ratio: at most 0.25 for the first, at most 0.25 for the second.

NDMF and PKEQ cannot be ordered by enrichment ratio: at most 0.25 for the first, at most 0.25 for the second.

EHNR and IDQW cannot be ordered by enrichment ratio: at most 0.25 for the first, at most 0.25 for the second.

YYTH and SIKG cannot be ordered by enrichment ratio: at most 0.25 for the first, at most 0.25 for the second.

LVKV and HPKG cannot be ordered by enrichment ratio: at most 0.25 for the first, at most 0.25 for the second.

SHWY and DHDV cannot be ordered by enrichment ratio: at most 0.25 for the first, at most 0.25 for the second.

PSKD and YEFW cannot be ordered by enrichment ratio: at most 0.25 for the first, at most 0.25 for the second.

SYGV and SAKN cannot be ordered by enrichment ratio: at most 0.25 for the first, at most 0.25 for the second.

RAFD and RVSF cannot be ordered by enrichment ratio: at most 0.25 for the first, at most 0.25 for the second.

LYDT and RYQE cannot be ordered by enrichment ratio: at most 0.25 for the first, at most 0.25 for the second.

PSMN and QFPP cannot be ordered by enrichment ratio: at most 0.25 for the first, at most 0.25 for the second.

HDQH and LAYK cannot be ordered by enrichment ratio: at most 0.25 for the first, at most 0.25 for the second.

NGRQ and YENS cannot be ordered by enrichment ratio: at most 0.25 for the first, at most 0.25 for the second.

PPKI and GYNA cannot be ordered by enrichment ratio: at most 0.25 for the first, at most 0.25 for the second.

IASS and VSSE cannot be ordered by enrichment ratio: at most 0.25 for the first, at most 0.25 for the second.

KGPN and PTMH cannot be ordered by enrichment ratio: at most 0.25 for the first, at most 0.25 for the second.

HMGF and FSDQ cannot be ordered by enrichment ratio: at most 0.25 for the first, at most 0.25 for the second.

SHSV and WWDQ cannot be ordered by enrichment ratio: at most 0.25 for the first, at most 0.25 for the second.

NNQD and VSLR cannot be ordered by enrichment ratio: at most 0.25 for the first, at most 0.25 for the second.

YKRL and NHMH cannot be ordered by enrichment ratio: at most 0.25 for the first, at most 0.25 for the second.

PDHN and VQLA cannot be ordered by enrichment ratio: at most 0.25 for the first, at most 0.25 for the second.

HYPV and AGMG cannot be ordered by enrichment ratio: at most 0.25 for the first, at most 0.25 for the second.

YGNI and SLYF cannot be ordered by enrichment ratio: at most 0.25 for the first, at most 0.25 for the second.

MMFT and HWGV cannot be ordered by enrichment ratio: at most 0.25 for the first, at most 0.25 for the second.

HICK and WYSD cannot be ordered by enrichment ratio: at most 0.25 for the first, at most 0.25 for the second.

Compared with YMTT, ALSQ is higher in enrichment ratio: at most 0.25 for the first, 16.2 for the second.

FVYG and PCLM cannot be ordered by enrichment ratio: at most 0.25 for the first, at most 0.25 for the second.

Going from QCLV to RYEW, the enrichment ratio falls from 1.13 to at most 0.25.

IKIC and WMED cannot be ordered by enrichment ratio: at most 0.25 for the first, at most 0.25 for the second.

VWEI and VDER cannot be ordered by enrichment ratio: at most 0.25 for the first, at most 0.25 for the second.

HHVE and WVSD cannot be ordered by enrichment ratio: at most 0.25 for the first, at most 0.25 for the second.

Going from PESP to YVQN, the enrichment ratio falls from 1.07 to at most 0.25.

IVTW and RAPH cannot be ordered by enrichment ratio: at most 0.25 for the first, at most 0.25 for the second.

QDYQ and QKKG cannot be ordered by enrichment ratio: at most 0.25 for the first, at most 0.25 for the second.

RLLT and RAYH cannot be ordered by enrichment ratio: at most 0.25 for the first, at most 0.25 for the second.

NYPC and TVWY cannot be ordered by enrichment ratio: at most 0.25 for the first, at most 0.25 for the second.

APEY and GDAK cannot be ordered by enrichment ratio: at most 0.25 for the first, at most 0.25 for the second.

Compared with ANMA, VVTR is lower in enrichment ratio: 3.57 for the first, at most 0.25 for the second.

METR and HWIA cannot be ordered by enrichment ratio: at most 0.25 for the first, at most 0.25 for the second.

PSRD and GDRR cannot be ordered by enrichment ratio: at most 0.25 for the first, at most 0.25 for the second.

HACV and FQDN cannot be ordered by enrichment ratio: at most 0.25 for the first, at most 0.25 for the second.

GDCD and TNMK cannot be ordered by enrichment ratio: at most 0.25 for the first, at most 0.25 for the second.

RGTS and KASK cannot be ordered by enrichment ratio: at most 0.25 for the first, at most 0.25 for the second.

LEHE and FNRF cannot be ordered by enrichment ratio: at most 0.25 for the first, at most 0.25 for the second.

Going from DFEG to GKPF, the enrichment ratio rises from at most 0.25 to 7.2.

REFV and LCDS cannot be ordered by enrichment ratio: at most 0.25 for the first, at most 0.25 for the second.

QTPC and VCEG cannot be ordered by enrichment ratio: at most 0.25 for the first, at most 0.25 for the second.

DVYL and FHIP cannot be ordered by enrichment ratio: at most 0.25 for the first, at most 0.25 for the second.

ERFV and MGDY cannot be ordered by enrichment ratio: at most 0.25 for the first, at most 0.25 for the second.

PRTQ and GKQS cannot be ordered by enrichment ratio: at most 0.25 for the first, at most 0.25 for the second.

KCFW and HQDY cannot be ordered by enrichment ratio: at most 0.25 for the first, at most 0.25 for the second.

LPNI and RWIQ cannot be ordered by enrichment ratio: at most 0.25 for the first, at most 0.25 for the second.

PGCG and VDGW cannot be ordered by enrichment ratio: at most 0.25 for the first, at most 0.25 for the second.

IAHW and KETG cannot be ordered by enrichment ratio: at most 0.25 for the first, at most 0.25 for the second.

First: HPYC
Second: VSME
The enrichment ratio of the first is lower: at most 0.25 for the first, 3.41 for the second.

YHKS and PLLW cannot be ordered by enrichment ratio: at most 0.25 for the first, at most 0.25 for the second.

MWYA and YHVI cannot be ordered by enrichment ratio: at most 0.25 for the first, at most 0.25 for the second.

EHWL and GYYT cannot be ordered by enrichment ratio: at most 0.25 for the first, at most 0.25 for the second.

HMRH and MASY cannot be ordered by enrichment ratio: at most 0.25 for the first, at most 0.25 for the second.

KGPK and FKIP cannot be ordered by enrichment ratio: at most 0.25 for the first, at most 0.25 for the second.

GSRY and LPNF cannot be ordered by enrichment ratio: at most 0.25 for the first, at most 0.25 for the second.

WFHW and NFSP cannot be ordered by enrichment ratio: at most 0.25 for the first, at most 0.25 for the second.

KGDR and PMKW cannot be ordered by enrichment ratio: at most 0.25 for the first, at most 0.25 for the second.

For PWPC, the enrichment ratio was at most 0.25.
